From PubChem BioAssay AID504845 (National Center for Advancing Translational Sciences (NCATS), 2011)
Hit rate of the full screen: of about 390,000 compounds, about 150 (0.038%) were called active. The inconclusive results got no clear call from the source; some entries with a clear call stand among them for comparison. Calls follow the shape of the dose curve; as a rule, active = well fitted inhibition curve with a large enough effect; inconclusive = small, poorly fitted or top-dose-only effect; inactive = no such curve, though single readings can be large or run the other way. Potencies beside an inconclusive call are fits to weak or partial responses and may not hold up.
Also: nearly all actives have a fitted effect of over 75% in size.
Potency is read from the fitted curve at half-maximal effect; tags tell the direction and shape of the fitted curve.

The compounds below were run against Regulator of G-protein signaling 4 (Homo sapiens) (UniProt P49798) (assay: Inhibitors of Regulator of G Protein Signaling (RGS) 4: qHTS). Details: Transcreener GDP fluorescence polarization, RGS4-accelerated GTP hydrolysis; series mostly up to 114 µM.
Sequence of UniProt P49798 (P49798 whole entry, looked up): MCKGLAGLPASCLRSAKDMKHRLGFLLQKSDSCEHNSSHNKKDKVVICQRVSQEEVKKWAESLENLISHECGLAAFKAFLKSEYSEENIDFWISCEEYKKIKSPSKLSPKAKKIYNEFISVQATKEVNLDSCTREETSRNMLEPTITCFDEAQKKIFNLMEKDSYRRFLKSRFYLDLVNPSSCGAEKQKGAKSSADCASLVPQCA
Outline: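 MLSMR compounds (23 nl, pin-transferred) preincubated 10 min at room temperature with a 500nM (2x) first reagent, then RGS4 at 900nM (2x) plus Transcreener GDP mix added; fluorescence polarization (620/688 nm) read before and after 90 min at 30 °C.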
For Cc1cc(N2C(=O)C(O)=C(C(=O)c3ccc(C)o3)C2c2cccc(Oc3ccccc3)c2)no1 (centres undefined), the Potency was inconclusive: 100 µM [inhibitor, partial curve, poor fit]. In the case of O=C(COC(=O)C1CC(=O)N(Cc2ccco2)C1)c1ccc(OC(=O)c2ccco2)cc1 (centres undefined), the Potency is reported as inconclusive: 79.4 µM [inhibitor, partial curve, poor fit]. In the case of CCC(=O)NC(c1ccc(C)cc1)c1cc([N+](=O)[O-])c2cccnc2c1O (centres undefined), the Potency is reported as inconclusive: 89.1 µM [inhibitor, single point]. In the case of COC(=O)CSc1nnc(C2COc3ccccc3O2)n1-c1ccccc1 (centres undefined), the Potency is reported as “inactive”. In the case of COc1ccccc1C(=O)N/C(=C/c1cccc([N+](=O)[O-])c1)C(=O)Nc1cccc(C(=O)O)c1, the Potency is reported as inconclusive: 17.8 µM [inhibitor, full curve, poor fit]. In the case of COc1cc([N+](=O)[O-])cc2sc(NC(=O)C3CC3)nc12, the Potency is reported as inconclusive: 79.4 µM [inhibitor, single point]. O=C(O)CCn1nnc(-c2ccccc2)n1 was tested, and the Potency was inconclusive: 39.8 µM [inhibitor, full curve, poor fit]. With CSc1nc2c(c(=O)[nH]c(=O)n2C)n1Cc1ccc(Cl)cc1 the Potency was inconclusive: 17.8 µM [inhibitor, full curve, poor fit]. CCCCC[C@H](O)/C=C/C1=C(CCCCCCC(=O)O)C(=O)CC1 was tested, and the Potency was inconclusive: 0.106 µM [inhibitor, full curve, poor fit]. COc1ccc(NC(=O)c2c(NCc3sccc3C)sc3c2CCCCC3)c(OC)c1 was tested, and the Potency was inconclusive: 44.7 µM [inhibitor, partial curve, poor fit]. O=C(NCc1cccnc1)/C(=C\c1ccc(-c2cccc(Cl)c2)o1)S(=O)(=O)c1ccccc1 was tested, and the Potency was inconclusive: 44.7 µM [inhibitor, partial curve, poor fit]. COc1cccc(-n2c(C)c3c(OC)cccc(=O)c3c2C)c1 was tested, and the Potency was “inactive”. With CCCc1c(-c2ccc(O)cc2)nn(-c2ccc(O)cc2)c1-c1ccc(O)cc1 the Potency was inconclusive: 26.7 µM [inhibitor, partial curve]. With COc1ccccc1OCC(=O)Nc1ccccc1C(=O)NCc1ccco1 the Potency was inconclusive: 89.1 µM [inhibitor, single point]. With N#C/C(=C\c1cccc([N+](=O)[O-])c1)C(=O)NCc1ccc(Cl)cc1 the Potency was inconclusive: 28.2 µM [inhibitor, full curve, poor fit]. CCOc1ccc(Nc2nc3cc(S(=O)(=O)N(CC)CC)ccc3o2)cc1 was tested, and the Potency was inconclusive: 10 µM [inhibitor, full curve, poor fit]. With Cc1cccc(NC(c2ccc(O)cc2)c2ccc3ccc(C)nc3c2O)n1 (centres undefined) the Potency was inconclusive: 28.2 µM [inhibitor, full curve, poor fit]. In the case of O=C(COc1cccc2cccnc12)N/N=C/c1ccc(O)cc1, the Potency is reported as inconclusive: 100 µM [inhibitor, single point]. In the case of O=C(NC1CCN(Cc2ccccc2)CC1)c1ccc(Cn2c(=S)[nH]c3ccc(N4CCOCC4)cc3c2=O)cc1, the Potency is reported as “inactive”. With COc1cc(OC)c2c(O)c3c(c(-c4c5c(c(O)c6c(OC)cc(OC)cc46)CO[C@@H](C)[C@H]5O)c2c1)[C@H](O)[C@H](C)OC3 the Potency was inconclusive: 39.8 µM [inhibitor, partial curve, poor fit]. Fc1ccccc1CNC(=S)NCc1ccc(Cl)cc1 was tested, and the Potency was “inactive”. In the case of Cc1ccc2c(c1)sc(C)[n+]2CCCS(=O)(=O)[O-], the Potency is reported as inconclusive: 79.4 µM [inhibitor, partial curve, poor fit]. For CC(=O)/C=C\c1ccccc1OC(=O)c1cc2ccccc2oc1=O, the Potency was inconclusive: 15.8 µM [inhibitor, partial curve, poor fit]. With CCCC(=O)Nc1ccc(-c2nc3cc(C)ccc3o2)cc1 the Potency was inconclusive: 79.4 µM [inhibitor, single point]. In the case of CNc1ccc(Br)cc(C(=O)/C=C/c2ccc(Cl)cc2Cl)c1=O, the Potency is reported as inconclusive: 39.8 µM [inhibitor, partial curve, poor fit]. With CCC(=O)N(CCC(c1ccco1)C(C)C)Cc1ccccc1 (centres undefined) the Potency was inconclusive: 31.6 µM [inhibitor, full curve, poor fit]. With NS(=O)(=O)c1ccc(NC(=O)c2c(Cl)cccc2Cl)cc1 the Potency was inconclusive: 79.4 µM [inhibitor, partial curve, poor fit]. With NC(=O)c1ccc(C(F)(F)F)n(Cc2ccc(F)c(F)c2)c1=O the Potency was inconclusive: 56.2 µM [inhibitor, partial curve, poor fit]. In the case of COc1ccc(CNC(=O)c2cc3c(=O)oc4ccc(C)cc4c3s2)c(OC)c1, the Potency is reported as “inactive”. With COc1ccc(/C=C/C(=O)Nc2ccccc2C(=O)O)cc1 the Potency was inconclusive: 70.8 µM [inhibitor, single point]. In the case of COc1ccccc1OCC(O)CO (centres undefined), the Potency is reported as “inactive”. With CCNS(=O)(=O)c1ccc(-c2ccc(-n3cnnn3)cc2)cc1 the Potency was inconclusive: 70.8 µM [inhibitor, partial curve, poor fit]. In the case of CC(=O)N1/C(=C/c2ccc(N(C)C)cc2)C(=O)c2ccccc21, the Potency is reported as inconclusive: 89.1 µM [inhibitor, single point]. With COC(=O)CCCCCNc1ccc(C(=O)OC)cc1N the Potency was inconclusive: 31.6 µM [inhibitor, full curve, poor fit]. O=C(CCl)N1N=C(c2ccco2)CC1c1ccco1 (centres undefined) was tested, and the Potency was inconclusive: 79.4 µM [inhibitor, partial curve, poor fit]. For O=C1CCSC2(C(=O)N(Cc3ccc(F)cc3)c3ccccc32)N1c1ccc(F)c(F)c1 (centres undefined), the Potency was “inactive”. For Cc1ccc2[nH]c(CSc3nnc(NC(=O)c4ccc(Cl)cc4)s3)cc(=O)c2c1, the Potency was “inactive”. With CCOc1ccc(N(CC(=O)NCCSCc2ccccc2)S(=O)(=O)c2ccccc2)cc1 the Potency was “inactive”. COC(=O)c1cccc(Nc2nc(-c3cccnc3)nc3ccccc23)c1 was tested, and the Potency was inconclusive: 50.1 µM [inhibitor, partial curve, poor fit]. With O=C(Nc1ccc(O)cc1)N1CCOCC1 the Potency was “inactive”. For Cc1ccc(NC(=O)[C@@H](c2ccccc2)N2Cc3ccccc3C2=O)cc1, the Potency was “inactive”. O=C(CCc1ccccc1)C(=O)N1CCCC(C(=O)c2cccc(Cl)c2)C1 (centres undefined) was tested, and the Potency was inconclusive: 50.1 µM [inhibitor, partial curve, poor fit]. For COc1ccc(NC(=O)CSc2nc(NS(=O)(=O)c3ccccc3)cc(=O)[nH]2)cc1, the Potency was inconclusive: 44.7 µM [inhibitor, partial curve, poor fit]. CCCCOc1ccc(N(CC(=O)NCC2CCCO2)C(=O)CCC(=O)Nc2cc(C)ccn2)cc1 (centres undefined) was tested, and the Potency was inconclusive: 89.1 µM [inhibitor, partial curve, poor fit]. For Cc1ccc(N(Cc2cc(=O)[nH]c3ccccc23)C(=O)c2ccco2)cc1, the Potency was “inactive”. For Clc1cccc(C=NC=Nc2cccc(Cl)c2)c1, the Potency was inconclusive: 11.9 µM [inhibitor, partial curve, poor fit]. COc1cc(/C=C2\C(=N)N3N=C(S(C)(=O)=O)SC3=NC2=O)ccc1OS(=O)(=O)c1ccc(C)cc1 was tested, and the Potency was inconclusive: 50.1 µM [inhibitor, partial curve, poor fit]. COc1ccc(NS(=O)(=O)c2ccc3oc(SC)nc3c2)cc1 was tested, and the Potency was inconclusive: 20 µM [inhibitor, full curve, poor fit]. In the case of COc1ccc(/C=C2/C(=O)ON=C2c2ccccc2)cc1OC, the Potency is reported as inconclusive: 28.2 µM [inhibitor, full curve, poor fit]. With O=C(NC1CCCc2ccccc21)C12CC3CC(CC(O)(C3)C1)C2 (centres undefined) the Potency was “inactive”. In the case of O=C(CCCCCCCC(=O)c1ccccc1)c1ccccc1, the Potency is reported as “inactive”. For Cc1ccc(SCC(=O)N2CCCC2)cc1, the Potency was “inactive”. With CC(C)n1c(=N)c(C(=O)NCc2ccccc2)cc2c(=O)n3ccccc3nc21 the Potency was inconclusive: 112 µM [inhibitor, partial curve, poor fit]. For N#CCN1CCN(CC(=O)Nc2cccc3ccccc23)CC1, the Potency was inconclusive: 100 µM [inhibitor, partial curve, poor fit]. For COc1ccc(OC)c(-n2c(C)ccc2-c2ccc(S(C)(=O)=O)cc2)c1, the Potency was inconclusive: 89.1 µM [inhibitor, single point]. With O=C(NC(Cc1ccccc1)C(=O)O)/C(=C\c1ccc(Cl)cc1)NC(=O)c1ccccc1 (centres undefined) the Potency was “inactive”. For Cc1ccc2[nH]c(=O)c(CN(Cc3ccc4c(c3)OCO4)Cc3nnnn3Cc3ccco3)cc2c1, the Potency was inconclusive: 50.1 µM [inhibitor, partial curve, poor fit]. For CCOc1cc(CNc2ccc(O)cc2)ccc1OCc1ccc(Cl)cc1Cl, the Potency was inconclusive: 50.1 µM [inhibitor, partial curve, poor fit]. With CC(C)=C1CCC(C)CC1=NNC(N)=S (centres undefined) the Potency was “inactive”. With CCN(CC)CCNC(=O)c1ccc(NC(=O)c2cccc(S(=O)(=O)N(C)C3CCCCC3)c2)cc1 the Potency was “inactive”. For Clc1ccc(Sc2cc(Cl)c(-c3ccccc3)nn2)cc1, the Potency was inconclusive: 79.4 µM [inhibitor, single point]. COc1ccc2[nH]c3c(c2c1)CCN1C(=O)N([C@@H](C)C(=O)NCc2ccc(C)cc2)C(=O)[C@]31C was tested, and the Potency was “inactive”. In the case of Cc1cccnc1NC(=O)c1ccc(NS(=O)(=O)c2ccc3[nH]c(=O)[nH]c3c2)cc1, the Potency is reported as “inactive”. In the case of O=C(O)c1cc(=S)nc[nH]1, the Potency is reported as inconclusive: 44.7 µM [inhibitor, partial curve, poor fit].
